Measurements published in ChEMBL document CHEMBL4888484, “Replenishing the malaria drug discovery pipeline: Screening and hit evaluation of the MMV Hit Generation Library 1 (HGL1) against asexual blood stage Plasmodium falciparum ,using a nano luciferase reporter read-out” (2022).
In all, about 150,000 compounds went through this assay and about 540 (0.36%) showed an effect of 50% or more. Some of the results follow.

What follows are compounds tested on Plasmodium falciparum (assay: Primary screen in NF54 nanoGlo assay, in single point, at 2uM, 72h; a lower Z score goes with more inhibition). Conditions: timepoint 72 hour.
Format: functional, Erythrocyte

SMILES	% Inhibition [%]	Z score
CC(C)C[C@H]1C(=O)N(c2ccc(F)cn2)C(=O)N1C	4	-0.6
COCC1CCCN(C(=O)[C@@H](N)C(C)(C)C)C1 (stereo partly drawn)	-3	0.36
CO[C@H]1[C@H](NC(=O)c2ccco2)c2ccccc2C12CCN(Cc1nc(C(C)C)cs1)CC2	-3	0.46
CCN1CC(=O)N[C@H]2CN(C(=O)Cn3nc(C)c(C)cc3=O)CC[C@@H]2OCc2cccc(c2)Oc2cccc(c2)CC1=O	-17	2.22
O=S(=O)(NC1CCCC(O)C1)c1ccc2c(c1)CCCC2 (stereo not drawn)	-8	1.09
CCCCCNC(=O)c1n[nH]c2c1CN(C(=O)Cc1ccccc1C)CC2	9	-1.07
CCc1noc(C)c1CN[C@H]1CC(C)(C)OC1(C)C	0	0.03
C#CCOc1ccc([C@H]2CC(=O)Nc3c2cnn3Cc2ccc3c(c2)OCO3)cc1	-7	0.68
CNC(=O)CN1CCN(CC2CCC2)CC1=O	-12	2.3
O=C(NC[C@H]1CCCN(c2ccncc2)C1)c1cnccn1	-8	1.15
Cc1ccc(CN2C(=O)Cn3cccc3[C@@H]2C(=O)NC2CCCC2)cc1	0	-0.04
CCn1nc(C)c(CNC[C@H]2COc3ccccc3O2)c1C	0	-0.03
O=C(c1ccccc1)[C@H]1[C@]2(C(=O)Nc3ccccc32)[C@H](Cc2ccccc2)N[C@@]12C(=O)Nc1ccccc12	1	-0.27
O=C(CC1C(=O)Nc2c(F)cccc21)NC[C@H]1C[C@@H]1c1ccccc1 (stereo partly drawn)	-12	1.88
Cc1ccccc1-c1cc2c(c(O[C@H]3CCOC3)c1)OCCNC2	2	-0.27
CCc1nnsc1C(=O)NCCc1ccc(OCc2ccccc2)cc1	9	-1.26
NC(=O)[C@@H]1CCCN1S(=O)(=O)c1ccc2c(c1)CCC(=O)N2	-13	1.82
COCCOc1cc(NC(=O)NC2CC(C)(OC)C2(C)C)ccn1 (stereo not drawn)	6	-1.19
Cc1ccc(C)c(NCN2C(=O)NC(C)(C)C2=O)c1	7	-1.13
COc1ccccc1COc1ccc(-c2noc(C)n2)cc1OC	-4	0.53
COc1ccc(NC(=O)[C@@H](c2cccs2)N(Cc2ccccc2)C(=O)Cn2nnc3ccccc32)cc1	5	-0.6

SMILES	% Inhibition [%]	Z score
CCOC(=O)N1CCC(N2CCN3CCCC3C2C2CCCCC2)CC1 (stereo not drawn)	5	-0.94
Cn1c(=O)n(Cc2noc(C3CC3)n2)c2ccccc21	-14	1.64
COc1cccc(C(C(=O)O)N2C[C@H]3CCN(Cc4ccccc4)[C@H]3C2)c1 (stereo partly drawn)	-13	2.68
Cc1[nH]c2ccccc2c1C1=CCN(C(=O)c2nccn2C)CC1	-8	1.53
O=C(CCc1ccccc1)Nc1ccc2c(c1)cc(C(=O)NCc1ccncc1)n2Cc1ccccc1	-6	0.74
O=C(Nc1ccc2c(c1)OCO2)c1nnc(C(=O)N2CCC[C@H](C(=O)NCc3ccccc3)C2)s1	-21	1.82
CN1CCN(C(=O)c2cc3n(n2)CCN(c2cc(-n4cccn4)ncn2)C3)CC1	-22	4.12
Cc1cc(S(=O)(=O)N(CCO)CCO)c(Cl)cc1Br	-28	3.26
CC1CC(C)CN(C(=O)c2ccc(NC(=O)c3cccs3)cc2)C1 (stereo not drawn)	-6	1.2
Cc1cc(NC(=O)CN(C)[C@@H](C)CC(C)C)on1	-9	0.95
COc1ccc(S(=O)(=O)N2C[C@H](COCC3CC3)C3(CCOCC3)C2)cc1Cl	-3	0.43
C[C@H](NC(=O)c1cccnc1O)C(=O)N1CCCC1	12	-1.44
CCOC(=O)c1cnn(-c2nc3ccccc3o2)c1C	1	-0.07
O=C(CNC1(c2cccc(Br)c2)CC1)N1CCNC1=O	1	-0.06
O=S(=O)(Cc1cc(Cl)ccc1F)N[C@@H](CCO)C1CCCCC1	8	-1.3
CCS(=O)(=O)CCn1ccnc1-c1cc2c(cc1OC)OCO2	-16	2.2
Cc1nnnn1CCCN1CCc2onc(-c3cccc4ccccc34)c2C1	7	-0.94
CCC(CC)(CO)CNC(=O)Nc1cccc(F)c1F	-6	0.72
Cc1cccc(NC(=O)c2cccc(N3C[C@@H](C(=O)Nc4cc(C)ccc4C)CC3=O)c2)c1	-9	0.89
COc1ccccc1CN[C@H](c1ccccc1)c1cc2ccccc2o1	0	0.01
CCCc1cc(N2CCC3(CC2)C[C@@H](C(=O)O)N(C(C)=O)C3)nc(C)n1	-11	1.36

SMILES	% Inhibition [%]	Z score
Cc1ccccc1Cn1nc(C(C)C)nc1CCCC(N)=O	-2	0.27
CC(NC(=O)C1CCN(S(=O)(=O)c2ccc3c(c2)CCC3)CC1)C1CC2CCC1C2 (stereo not drawn)	1	-0.22
COc1cccc(C(=O)N2CCN(C(=O)c3ccc4nc(C)c(C)nc4c3)CC2)c1	9	-1.23
Cc1cc(CN(C)C(=O)N[C@H](c2cccs2)C2CCCCC2)on1	0	-0.02
Nc1nnc([C@H]2CCCN(Cc3ccc4cnccc4c3)C2)o1	-17	1.96
NC(=O)c1csc(CCN2C(=O)c3ccccc3C2=O)n1	26	-2.95
Cc1nc(C#N)c(C#N)n1Cc1nc(-c2cccs2)no1	-5	0.69
CC[C@@H](C(=O)N1CCc2ccccc21)n1cnc2onc(-c3ccc(Cl)cc3)c2c1=O	-2	0.42
COCCn1ccnc1-c1[nH]cnc1-c1ccccc1	3	-0.45
COc1cccc(CNC(=O)Cn2ccc3ccc(N4CCCCCC4)nc32)c1	-11	1.52
Cc1sc(C)c(S(=O)(=O)Nc2ccccc2Cl)c1-c1cc(C(F)(F)F)on1	-1	0.09
Cc1n[nH]c(C)c1CC(=O)N(C)CC1(CO)CCCC1	-1	0.18
NC(=O)Cc1cccc(NC(=O)N[C@H]2COC[C@@H]2N2CCCCC2)c1	17	-2.13
Cc1nnc2n1CCN(CC(=O)NC1(C#N)CCCC1)C2	3	-0.51
C[C@H](O)c1onc(-c2cccs2)c1C(=O)NC(C)(C)C	32	-3.57
Cn1cnc(CCNS(=O)(=O)c2cn(C)nc2C2CCCC2)c1	-6	0.92
Cc1nc(NCc2cc3n(n2)CCN(CC(C)C)C3)c2cccnc2n1	-9	0.98
O=C(c1cnc(-c2cccnc2)nc1)N1C[C@H]2CC[C@@H](C1)N(CC1CC1)C2	-1	0.24
CCN(C[C@H](O)c1cccc(O)c1)C(=O)NCc1n[nH]c(C)n1	-18	2.61
O=C(NCCN1CCCOCC1)c1cnc(-c2ccccn2)s1	-19	2.67
CCN(CCC(F)(F)F)C(=O)Nc1cccc(Cl)c1OC	-7	0.67

SMILES	% Inhibition [%]	Z score
O=C(c1ccnc(-c2ccoc2)c1)N1CCOCC1	-6	1
COc1ccc(N2C[C@@H](C(=O)N(C)Cc3cc(C)on3)CC2=O)cc1	4	-0.56
CCNC(=O)Cn1ccc(NC(=O)c2cccnc2OCC(C)C)n1	-2	0.25
Cc1ccc(-c2ccnc(-c3cccc(CN)c3)n2)c(C)n1	1	-0.1
Cc1cc([C@@H]2CCCN2c2ncnc3c2CN(C)CC3)no1	0	0.04
CCCc1cc(C(=O)N(CCO)CC2CCCCC2)no1	0	-0.05
CN(Cc1nc(O)c2ccccc2n1)C(=O)c1cccc(S(=O)(=O)N2CCCC2)c1	-15	2.33
Cc1cc(NC(=O)N2CCCN3CCC[C@H]3C2)ccc1F	-16	2.36
Cc1nc(C)c(COc2ccc3c(c2)CCNC3=O)s1	-8	1.52
O=C1C[C@H](CNc2nccc3cccnc23)CN1C1CC1	-11	1.72
C[C@H]1CN(C(=O)CN(C)Cc2ccc(Cl)s2)CCO1	-1	0.17
CC(C)(C)c1cn(-c2cccc(S(F)(F)(F)(F)F)c2)nn1	-5	0.6
CC#CCNC(=O)NCC(C)(C)CC1CCOCC1	-4	0.43
COc1ccc(CCNC(=O)c2ccc(N3C(=O)N4CCc5c([nH]c6ccccc56)[C@@]4(C)C3=O)cc2)cc1	2	-0.46
CC(C)C(=O)Nc1ccc(-n2cnc(C(=O)N3CCCCCC3)c2)nc1	-11	1.77
COCc1ncc2c(n1)CCN(C[C@H](C)c1ccc(OC)cc1)C2	-1	0.19
CC(C)(O)Cn1nc(COc2cccc(F)c2)nc1[C@]1(C)CCCO1	-10	1.88
O=C1CCCCCN1C(=O)c1ccccc1F	-13	2.26
C=CCN1CCC[C@H]1C(=O)NC1(Cc2ccccc2C)CC1	-2	0.31
O=C(COc1ccccc1)NCc1nc([C@H]2CC(=O)N(Cc3ccccc3)C2)no1	1	-0.08
COC[C@@H]1CN(C(=O)c2nccc3ccccc23)C[C@H]1c1nc(C)no1	-9	1.57
